# Measurements taken from the supplement of paper PMC8728848.
# Some of the results follow.
# What was measured:
# Assay in all cases: glycan array binding signal (z-score within array); higher = stronger binding
# Conditions in all cases: glycan notation: IUPAC condensed, linker removed; mutation: H59Q
# [1] = molecular target: GlcNAc(b1-3)Gal(b1-3)GalNAc
# Outline: (§1)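 Glycan array data were curated from 3228 arrays in the Consortium for Functional Glycomics database and kept only where the protein sequence was available. Glycan names were converted to IUPAC-condensed notation, and columns mapping to the same glycan were averaged. The binding signal is a within-array Z-score, averaged across arrays of the same protein sequence at different concentrations or buffers and across linkers. Negative Z-scores can be read as non-binding.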
# GlcNAc(b1-3)Gal(b1-4)Glc = molecular target: GlcNAc(b1-3)Gal(b1-4)Glc
# Outline: as §1
# [2] = molecular target: GlcNAc(b1-3)Gal(b1-4)GlcNAc
# Outline: as §1
# [3] = molecular target: GlcNAc(b1-3)Gal(b1-4)GlcNAc(b1-2)Man(a1-3)[GlcNAc(b1-3)Gal(b1-4)GlcNAc(b1-2)Man(a1-6)]Man(b1-4)GlcNAc(b1-4)GlcNAc
# Outline: as §1
# [4] = molecular target: GlcNAc(b1-3)Gal(b1-4)GlcNAc(b1-2)Man(a1-3)[GlcNAc(b1-3)Gal(b1-4)GlcNAc(b1-2)Man(a1-6)]Man(b1-4)GlcNAc(b1-4)[Fuc(a1-6)]GlcNAc
# Outline: as §1
# [5] = molecular target: GlcNAc(b1-3)Gal(b1-4)GlcNAc(b1-2)[GlcNAc(b1-3)Gal(b1-4)GlcNAc(b1-6)]Man(a1-6)[GlcNAc(b1-3)Gal(b1-4)GlcNAc(b1-2)Man(a1-3)]Man(b1-4)GlcNAc(b1-4)GlcNAc
# Outline: as §1
# [6] = molecular target: GlcNAc(b1-3)Gal(b1-4)GlcNAc(b1-3)Gal(b1-4)GlcNAc
# Outline: as §1
# [7] = molecular target: GlcNAc(b1-3)Gal(b1-4)GlcNAc(b1-3)Gal(b1-4)GlcNAc(b1-2)Man(a1-3)[GlcNAc(b1-3)Gal(b1-4)GlcNAc(b1-3)Gal(b1-4)GlcNAc(b1-2)Man(a1-6)]Man(b1-4)GlcNAc(b1-4)GlcNAc
# Outline: as §1
# [8] = molecular target: GlcNAc(b1-3)Gal(b1-4)GlcNAc(b1-3)Gal(b1-4)GlcNAc(b1-2)Man(a1-3)[GlcNAc(b1-3)Gal(b1-4)GlcNAc(b1-3)Gal(b1-4)GlcNAc(b1-2)Man(a1-6)]Man(b1-4)GlcNAc(b1-4)[Fuc(a1-6)]GlcNAc
# Outline: as §1
# [9] = molecular target: GlcNAc(b1-3)Gal(b1-4)GlcNAc(b1-3)Gal(b1-4)GlcNAc(b1-2)[GlcNAc(b1-3)Gal(b1-4)GlcNAc(b1-3)Gal(b1-4)GlcNAc(b1-6)]Man(a1-6)[GlcNAc(b1-3)Gal(b1-4)GlcNAc(b1-3)Gal(b1-4)GlcNAc(b1-2)Man(a1-3)]Man(b1-4)GlcNAc(b1-4)[Fuc(a1-6)]GlcNAc
# Outline: as §1
# [10] = molecular target: GlcNAc(b1-3)Gal(b1-4)GlcNAc(b1-3)Gal(b1-4)GlcNAc(b1-3)Gal(b1-4)GlcNAc(b1-2)Man(a1-3)[GlcNAc(b1-3)Gal(b1-4)GlcNAc(b1-3)Gal(b1-4)GlcNAc(b1-3)Gal(b1-4)GlcNAc(b1-2)Man(a1-6)]Man(b1-4)GlcNAc(b1-4)GlcNAc
# Outline: as §1
# [11] = molecular target: GlcNAc(b1-3)Gal(b1-4)GlcNAc(b1-3)Gal(b1-4)GlcNAc(b1-3)Gal(b1-4)GlcNAc(b1-2)Man(a1-3)[GlcNAc(b1-3)Gal(b1-4)GlcNAc(b1-3)Gal(b1-4)GlcNAc(b1-3)Gal(b1-4)GlcNAc(b1-2)Man(a1-6)]Man(b1-4)GlcNAc(b1-4)[Fuc(a1-6)]GlcNAc
# Outline: as §1
# [12] = molecular target: GlcNAc(b1-3)Gal(b1-4)GlcNAc(b1-3)Gal(b1-4)GlcNAc(b1-3)Gal(b1-4)GlcNAc(b1-2)[GlcNAc(b1-3)Gal(b1-4)GlcNAc(b1-3)Gal(b1-4)GlcNAc(b1-3)Gal(b1-4)GlcNAc(b1-6)]Man(a1-6)[GlcNAc(b1-3)Gal(b1-4)GlcNAc(b1-3)Gal(b1-4)GlcNAc(b1-3)Gal(b1-4)GlcNAc(b1-2)Man(a1-3)]Man(b1-4)GlcNAc(b1-4)[Fuc(a1-6)]GlcNAc
# Outline: as §1
# [13] = molecular target: GlcNAc(b1-3)Gal(b1-4)GlcNAc(b1-3)Gal(b1-4)GlcNAc(b1-3)Gal(b1-4)GlcNAc(b1-3)Gal(b1-4)GlcNAc(b1-2)Man(a1-3)[GlcNAc(b1-3)Gal(b1-4)GlcNAc(b1-3)Gal(b1-4)GlcNAc(b1-3)Gal(b1-4)GlcNAc(b1-3)Gal(b1-4)GlcNAc(b1-2)Man(a1-6)]Man(b1-4)GlcNAc(b1-4)GlcNAc
# Outline: as §1
# [14] = molecular target: GlcNAc(b1-3)Gal(b1-4)GlcNAc(b1-3)Gal(b1-4)GlcNAc(b1-3)Gal(b1-4)GlcNAc(b1-3)Gal(b1-4)GlcNAc(b1-2)Man(a1-3)[GlcNAc(b1-3)Gal(b1-4)GlcNAc(b1-3)Gal(b1-4)GlcNAc(b1-3)Gal(b1-4)GlcNAc(b1-3)Gal(b1-4)GlcNAc(b1-2)Man(a1-6)]Man(b1-4)GlcNAc(b1-4)[Fuc(a1-6)]GlcNAc
# Outline: as §1
# [15] = molecular target: GlcNAc(b1-3)Gal(b1-4)GlcNAc(b1-3)Gal(b1-4)GlcNAc(b1-3)Gal(b1-4)GlcNAc(b1-3)Gal(b1-4)GlcNAc(b1-2)[GlcNAc(b1-3)Gal(b1-4)GlcNAc(b1-3)Gal(b1-4)GlcNAc(b1-3)Gal(b1-4)GlcNAc(b1-3)Gal(b1-4)GlcNAc(b1-6)]Man(a1-6)[GlcNAc(b1-3)Gal(b1-4)GlcNAc(b1-3)Gal(b1-4)GlcNAc(b1-3)Gal(b1-4)GlcNAc(b1-3)Gal(b1-4)GlcNAc(b1-2)Man(a1-3)]Man(b1-4)GlcNAc(b1-4)[Fuc(a1-6)]GlcNAc
# Outline: as §1
# [16] = molecular target: GlcNAc(b1-3)Gal(b1-4)GlcNAc(b1-3)Gal(b1-4)GlcNAc(b1-3)GalNAc
# Outline: as §1
# [17] = molecular target: GlcNAc(b1-3)Gal(b1-4)GlcNAc(b1-3)GalNAc
# Outline: as §1
# [18] = molecular target: GlcNAc(b1-3)Gal(b1-4)GlcNAc(b1-3)[GlcNAc(b1-3)Gal(b1-4)GlcNAc(b1-3)]GalNAc
# Outline: as §1
# [19] = molecular target: GlcNAc(b1-3)Gal(b1-4)GlcNAc(b1-6)[Gal(b1-3)]GalNAc
# Outline: as §1
# [20] = molecular target: GlcNAc(b1-3)Gal(b1-4)GlcNAc(b1-6)[GlcNAc(b1-3)Gal(b1-3)]GalNAc
# Outline: as §1
# [21] = molecular target: GlcNAc(b1-3)Gal(b1-4)GlcNAc(b1-6)[GlcNAc(b1-3)]Gal(b1-4)GlcNAc
# Outline: as §1
# GlcNAc(b1-3)GalNAc = molecular target: GlcNAc(b1-3)GalNAc
# Outline: as §1
# GlcNAc(b1-3)Man = molecular target: GlcNAc(b1-3)Man
# Outline: as §1
# [22] = molecular target: GlcNAc(b1-3)[GlcNAc(b1-4)][GlcNAc(b1-6)]GlcNAc
# Outline: as §1
# [23] = molecular target: GlcNAc(b1-3)[GlcNAc(b1-6)]Gal(b1-4)GlcNAc
# Outline: as §1
# [24] = molecular target: GlcNAc(b1-3)[GlcNAc(b1-6)]GalNAc
# Outline: as §1
# [25] = molecular target: GlcNAc(b1-4)Gal(b1-4)GlcNAc
# Outline: as §1
# GlcNAc(b1-4)GlcNAc = molecular target: GlcNAc(b1-4)GlcNAc
# Outline: as §1
# [26] = molecular target: GlcNAc(b1-4)GlcNAc(b1-4)GlcNAc
# Outline: as §1
# [27] = molecular target: GlcNAc(b1-4)GlcNAc(b1-4)GlcNAc(b1-4)GlcNAc(b1-4)GlcNAc
# Outline: as §1
# [28] = molecular target: GlcNAc(b1-4)GlcNAc(b1-4)GlcNAc(b1-4)GlcNAc(b1-4)GlcNAc(b1-4)GlcNAc
# Outline: as §1
# [29] = molecular target: GlcNAc(b1-4)[GlcNAc(b1-6)]GalNAc
# Outline: as §1
# [30] = molecular target: GlcNAc(b1-6)Gal(b1-4)GlcNAc
# Outline: as §1
# GlcNAc(b1-6)GalNAc = molecular target: GlcNAc(b1-6)GalNAc
# Outline: as §1
# [31] = molecular target: GlcNAc6S(b1-3)Gal(b1-4)GlcNAc
# Outline: as §1
# Kdn(a2-3)Gal(b1-3)GalNAc = molecular target: Kdn(a2-3)Gal(b1-3)GalNAc
# Outline: as §1
# Kdn(a2-3)Gal(b1-3)GlcNAc = molecular target: Kdn(a2-3)Gal(b1-3)GlcNAc
# Outline: as §1
# Kdn(a2-3)Gal(b1-4)Glc = molecular target: Kdn(a2-3)Gal(b1-4)Glc
# Outline: as §1
# Kdn(a2-3)Gal(b1-4)GlcNAc = molecular target: Kdn(a2-3)Gal(b1-4)GlcNAc
# Outline: as §1
# [32] = molecular target: Kdn(a2-3)Gal(b1-4)[Fuc(a1-3)]GlcNAc
# Outline: as §1
# Kdn(a2-6)Gal(b1-4)GlcNAc = molecular target: Kdn(a2-6)Gal(b1-4)GlcNAc
# Outline: as §1
# [33] = molecular target: Man(a1-2)Man(a1-2)Man(a1-3)Man
# Outline: as §1
# [34] = molecular target: Man(a1-2)Man(a1-2)Man(a1-6)[Man(a1-3)]Man
# Outline: as §1
# Man(a1-2)Man(a1-3)Man = molecular target: Man(a1-2)Man(a1-3)Man
# Outline: as §1
binder,measurement,setting,value
"rAAL-H59Q (Agrocybe aegerita), Q6WY08 (protein) MQGVNIYNISAGTSVDLAAPVTTGDIVTFFSSALNLNAGAGNPNNTTLNLFAENGAYLLQIAFRLQENVIIFNSRQPDGPWLVEQRVSDVANQFAGIDGKAMVTVFDHGDKYQVVINEKTVIQYTKQISGLTLSLSYNATEETSIFSTVVEAVTYTGLALEHHHHHH",glycan array binding signal (z-score),[1],-0.049
same,glycan array binding signal (z-score),GlcNAc(b1-3)Gal(b1-4)Glc,-0.126
same,glycan array binding signal (z-score),[2],-0.062
same,glycan array binding signal (z-score),[3],-0.1
same,glycan array binding signal (z-score),[4],-0.041
same,glycan array binding signal (z-score),[5],-0.042
same,glycan array binding signal (z-score),[6],-0.092
same,glycan array binding signal (z-score),[7],-0.053
same,glycan array binding signal (z-score),[8],-0.02
same,glycan array binding signal (z-score),[9],0.095
same,glycan array binding signal (z-score),[10],-0.073
same,glycan array binding signal (z-score),[11],-0.038
same,glycan array binding signal (z-score),[12],0.063
same,glycan array binding signal (z-score),[13],-0.002
same,glycan array binding signal (z-score),[14],0.057
same,glycan array binding signal (z-score),[15],-0.037
same,glycan array binding signal (z-score),[16],-0.108
same,glycan array binding signal (z-score),[17],-0.03
same,glycan array binding signal (z-score),[18],-0.022
same,glycan array binding signal (z-score),[19],-0.03
same,glycan array binding signal (z-score),[20],-0.104
same,glycan array binding signal (z-score),[21],-0.13
same,glycan array binding signal (z-score),GlcNAc(b1-3)GalNAc,-0.079
same,glycan array binding signal (z-score),GlcNAc(b1-3)Man,-0.073
same,glycan array binding signal (z-score),[22],-0.026
same,glycan array binding signal (z-score),[23],-0.118
same,glycan array binding signal (z-score),[24],-0.097
same,glycan array binding signal (z-score),[25],-0.087
same,glycan array binding signal (z-score),GlcNAc(b1-4)GlcNAc,-0.07
same,glycan array binding signal (z-score),[26],-0.083
same,glycan array binding signal (z-score),[27],-0.142
same,glycan array binding signal (z-score),[28],-0.137
same,glycan array binding signal (z-score),[29],-0.123
same,glycan array binding signal (z-score),[30],-0.096
same,glycan array binding signal (z-score),GlcNAc(b1-6)GalNAc,-0.032
same,glycan array binding signal (z-score),[31],-0.037
same,glycan array binding signal (z-score),Kdn(a2-3)Gal(b1-3)GalNAc,-0.089
same,glycan array binding signal (z-score),Kdn(a2-3)Gal(b1-3)GlcNAc,-0.087
same,glycan array binding signal (z-score),Kdn(a2-3)Gal(b1-4)Glc,-0.124
same,glycan array binding signal (z-score),Kdn(a2-3)Gal(b1-4)GlcNAc,-0.098
same,glycan array binding signal (z-score),[32],-0.051
same,glycan array binding signal (z-score),Kdn(a2-6)Gal(b1-4)GlcNAc,-0.023
same,glycan array binding signal (z-score),[33],-0.136
same,glycan array binding signal (z-score),[34],-0.06
same,glycan array binding signal (z-score),Man(a1-2)Man(a1-3)Man,-0.14
